# Test results reported in PubChem BioAssay AID2147 (National Center for Advancing Translational Sciences (NCATS), 2009).
# About 3,600 (1.6%) of roughly 230,000 compounds were called active. Inconclusive results, whose numbers are uncertain, are shown with a selection of clear calls. Calls follow the shape of the dose curve; as a rule, active = well fitted inhibition curve with a large enough effect (not every such curve was filed as active); inconclusive = small, poorly fitted or top-dose-only effect, or another doubt; inactive = no such curve, though single readings can be large or run the other way. Potencies beside an inconclusive call are fits to weak or partial responses and may not hold up.
# Biological target: Lysine-specific demethylase 4E (Homo sapiens) (UniProt B2RXH2)
# Test: qHTS Assay for Inhibitors of Human Jumonji Domain Containing 2E (JMJD2E)
# Details: JMJD2E catalytic domain, FDH-coupled NADH fluorescence (FDH is formaldehyde dehydrogenase); series mostly up to 57.1 µM; activity change, negative = inhibition: at the top concentration
# Also: nearly all actives have a fitted effect of over 50% in size.
# 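For activity change, negative = inhibition in this document: 0% = wells with enzyme and -100% = buffer wells without enzyme.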
# Potency is read from the fitted curve at half-maximal effect; tags tell the direction and shape of the fitted curve.
# Chain of UniProt B2RXH2 (B2RXH2 whole entry, looked up, the tested form may be a part): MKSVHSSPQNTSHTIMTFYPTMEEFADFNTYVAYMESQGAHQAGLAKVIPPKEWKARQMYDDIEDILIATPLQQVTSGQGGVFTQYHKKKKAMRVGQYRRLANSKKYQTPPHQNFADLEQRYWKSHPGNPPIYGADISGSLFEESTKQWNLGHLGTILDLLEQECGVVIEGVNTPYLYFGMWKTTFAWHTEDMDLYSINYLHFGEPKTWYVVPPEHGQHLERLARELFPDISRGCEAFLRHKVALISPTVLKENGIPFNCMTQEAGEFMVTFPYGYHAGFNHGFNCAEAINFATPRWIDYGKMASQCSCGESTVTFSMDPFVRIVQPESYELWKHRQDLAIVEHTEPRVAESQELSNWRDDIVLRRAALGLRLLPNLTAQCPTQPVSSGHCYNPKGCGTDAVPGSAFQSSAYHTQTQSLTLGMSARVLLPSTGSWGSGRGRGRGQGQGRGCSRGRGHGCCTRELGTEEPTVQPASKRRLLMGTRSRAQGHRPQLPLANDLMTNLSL
SMILES,Potency,"activity change, negative = inhibition"
CCCCc1ccc(NC(=O)c2ccc(N(C)S(C)(=O)=O)cc2)cc1,"inconclusive: 39.8 µM [inhibitor, single point]",
Cc1ccccc1/C=C/c1cc[n+](C)cc1,active: 25.1 µM,
COc1ccc(C2=C/C(=C\c3cccc(OC(C)=O)c3)C(=O)O2)cc1,,inactive: 11.6%
CCOC(=O)N1CCN(C(=O)c2ccccc2Oc2ccccc2)CC1,,inactive: 6.26%
O=C(O)/C=C/c1cn(-c2ccccc2)nc1-c1cc2ccccc2o1,"inconclusive: 25.1 µM [inhibitor, partial curve]",
CCn1c2ccccc2c2cc(CC(N)=O)ccc21,"inconclusive: 39.8 µM [inhibitor, single point]",
CCOC(=O)c1sc2ncnc(NCC(c3cccs3)N(C)C)c2c1C (centres undefined),"inconclusive: 22.4 µM [inhibitor, partial curve]",
CC(=O)CCC(=O)N1CCCC(CNC(=O)c2ccc(-c3ccccc3)cc2)C1 (centres undefined),"inconclusive: 39.8 µM [inhibitor, single point]",
CCCn1c(=O)[nH]c(=O)c2c1nc(-c1ccc(OC)c(Br)c1)n2CCOC,"inconclusive: 25.1 µM [inhibitor, partial curve]",
CC(=O)Nc1ccc(S(=O)(=O)NNC(=O)COc2cccc(C)c2)cc1,"inconclusive: 39.8 µM [inhibitor, single point]",
N#Cc1nc(-c2ccc(OCc3ccccc3)cc2)oc1N1CCC(C(N)=O)CC1,"inconclusive: 28.2 µM [inhibitor, partial curve]",
Clc1ccc(-c2cc3ccccc3nc2N2CCCC2)cc1,"inconclusive: 31.6 µM [inhibitor, single point]",
O=C(Nc1ccc(C(=O)Nc2ccc(C(=O)Nc3ccc(S(=O)(=O)O)c4cc(S(=O)(=O)O)cc(S(=O)(=O)O)c34)cc2)cc1)Nc1ccc(C(=O)Nc2ccc(C(=O)Nc3ccc(S(=O)(=O)O)c4cc(S(=O)(=O)O)cc(S(=O)(=O)O)c34)cc2)cc1,"inconclusive: 28.2 µM [inhibitor, partial curve]",
COc1ccc(/C=C/c2cc(-c3ccc(C)cc3)o[n+]2C)cc1,"inconclusive: 28.2 µM [inhibitor, single point]",
Cc1ccc(-c2nc(SCC(=O)N(C)C3CCS(=O)(=O)C3)[nH]c2-c2ccc(C)cc2)cc1 (centres undefined),"inconclusive: 31.6 µM [inhibitor, single point]",
N#Cc1nc(-c2cccc3ccccc23)oc1NCCN1CCOCC1,"inconclusive: 28.2 µM [inhibitor, partial curve]",
COc1ccc(OC)c(-n2c(=S)[nH]c3cc(C(=O)N(C)Cc4ccccc4)ccc3c2=O)c1,,inactive: -7.45%
Oc1ccccc1C1=Nc2nc3ccccc3n2C(c2ccccc2)C1 (centres undefined),"inconclusive: 35.5 µM [inhibitor, partial curve]",
Cc1ccc(N2N=C(c3ccc(F)cc3)CC2c2ccco2)cc1 (centres undefined),"inconclusive: 0.891 µM [inhibitor, full curve]",
Cc1nn(C)c(C(=O)NNC(=S)NCC(C)C)c1Cl,,inactive: 2.21%
c1cc2cn[nH]c2cc1NC1CCCCCC1,"inconclusive: 22.4 µM [inhibitor, partial curve]",
O=C(Nc1nnc(-c2ccccc2)o1)c1ccc(Cl)cc1,"inconclusive: 39.8 µM [inhibitor, single point]",
CCOc1ccc(-n2c(C)c(C(=O)OC)c3cc(O)ccc32)cc1,"inconclusive: 28.2 µM [inhibitor, single point]",

SMILES,Potency,"activity change, negative = inhibition"
COc1ccc2nc(-c3ccc(Cl)cc3)cc(C(=O)O)c2c1,"inconclusive: 28.2 µM [inhibitor, partial curve]",
COc1cc(C(=O)OCCN2CCCCC2)ccc1O,,inactive: -2.23%
C#CCNc1cc(-c2ccccc2)nc2ncnn12,"inconclusive: 31.6 µM [inhibitor, single point]",
O=C(CCN1C(=O)C2C3C=CC(C4CC34)C2C1=O)Oc1cccc2cccnc12 (centres undefined),"inconclusive: 28.2 µM [inhibitor, single point]",
N=c1c(C(=O)NCc2ccco2)cc2c(=O)n3ccccc3nc2n1Cc1ccc(Cl)cc1,"inconclusive: 0.708 µM [inhibitor, single point]",
O=C(CSc1nc2nc(-c3cccs3)cc(C(F)(F)F)c2c(=O)[nH]1)NCc1ccco1,"inconclusive: 28.2 µM [inhibitor, partial curve]",
Cc1ccc(NS(=O)(=O)c2ccc(OCC(=O)NCC3CCCO3)cc2)cc1 (centres undefined),,inactive: 0.804%
Cc1n[nH]c(C)c1CCNCc1ccc(OCC(O)CN2CCCCC2)cc1 (centres undefined),,inactive: -5.44%
N#CC(C#N)=C1C=CC=CN1/C(=C\c1ccccc1Cl)C(=O)c1ccccc1,"inconclusive: 39.8 µM [inhibitor, single point]",
CCC(CC)C(=O)NCCc1cc2ccc(OC)cc2[nH]c1=O,"inconclusive: 25.1 µM [inhibitor, partial curve]",
CN(Cc1c(C(=O)N2CCc3ccccc3C2)nc2ccc(Cl)cn12)C(C1CC1)C1CC1,"inconclusive: 31.6 µM [inhibitor, single point]",
O=c1[nH][nH]c2cc(=O)n(-c3ccc(Cl)cc3)nc12,,inactive: -6.92%
CC12CN3CC(C)(CN(C1)C3c1ccccc1F)C2 (centres undefined),,inactive: 2.85%
COc1ccc(/C=N/NC(=O)c2ccncc2)cc1CN1CCN(c2ccc(F)cc2)CC1,,inactive: -3.14%
O=C(NCCc1c[nH]c2ccccc12)C(=O)NCC(c1cccnc1)N1CCN(c2ccccc2)CC1 (centres undefined),"inconclusive: 39.8 µM [inhibitor, single point]",
COc1cc(NS(=O)(=O)c2ccc(NC(=O)/C(=C/c3ccccc3Cl)NC(=O)c3ccccc3)cc2)nc(OC)n1,"inconclusive: 31.6 µM [inhibitor, single point]",
Cc1cc(NCCN2CCOCC2)c2ccc3ccccc3c2n1,"inconclusive: 39.8 µM [inhibitor, single point]",
CCOC(=O)C1CCCN(CC(=O)/C=C2/N(C)c3ccccc3C2(C)C)C1 (centres undefined),"inconclusive: 35.5 µM [inhibitor, single point]",
COC(=O)[C@@]1(Cc2ccc(F)cc2)[C@H]2c3cc(C(=O)N4CCCC4)n(CCN4CNCC4=O)c3C[C@H]2CN1C(=O)c1ccccc1,"inconclusive: 39.8 µM [inhibitor, single point]",
COc1ccccc1NCC(O)COc1ccc(C(C)(C)C)cc1 (centres undefined),"inconclusive: 25.1 µM [inhibitor, single point]",
COc1cc(CN2CCN(c3cccc(C)c3C)CC2)cc([N+](=O)[O-])c1O,"inconclusive: 22.4 µM [inhibitor, single point]",
NNC(=O)c1cc2ccccc2[nH]1,"inconclusive: 35.5 µM [inhibitor, single point]",
Cc1sc(-c2ccncc2)nc1OC(=O)c1ccc(Cl)cc1,,inactive: -11.7%

SMILES,Potency,"activity change, negative = inhibition"
Cc1ccc(OCc2nnc(SCCN3CCOCC3)n2C)cc1,"inconclusive: 39.8 µM [inhibitor, single point]",
CSc1nnnn1-c1ccc(C(=O)O)cc1,,inactive: -1.98%
Cc1cccc(CNc2nc(-c3c(C)noc3C)nc3ccccc23)c1,"inconclusive: 28.2 µM [inhibitor, partial curve]",
CCC(C)(C)n1nnnc1C(c1cc2ccc(C)cc2[nH]c1=O)N(Cc1cccnc1)Cc1ccco1 (centres undefined),"inconclusive: 39.8 µM [inhibitor, single point]",
CCOC(=O)C1=C(C)NC2=C(C(=O)CCC2)C1c1coc2ccccc2c1=O (centres undefined),"inconclusive: 7.94 µM [inhibitor, partial curve]",
Cc1cc2ncn(CC3CC3(Cl)Cl)c2cc1C (centres undefined),,inactive: 0.297%
COc1ncccc1-c1nnn(-c2ccc(Cl)nc2)n1,"inconclusive: 28.2 µM [inhibitor, single point]",
CCOC(=O)c1[nH]cc(-c2ccccc2)c1N1CCOCC1,,inactive: -0.222%
O=c1[nH]c2ccccc2c(O)c1SCCO,"inconclusive: 31.6 µM [inhibitor, partial curve]",
Cc1ccc(S(=O)(=O)N=Nc2c(O)[nH]c3ccccc23)cc1,,inactive: -8.81%
NS(=O)(=O)c1cccc(NC(=O)CN2CCc3ccccc32)c1,,inactive: -0.343%
Cc1ccc(S(=O)(=O)N(C)CC(=O)Nc2ccncc2)cc1,"inconclusive: 39.8 µM [inhibitor, single point]",
OCCn1nc2c3ccccc3nc-2n(-c2ccccc2)c1=S,"inconclusive: 35.5 µM [inhibitor, single point]",
Cc1ccc(NC2=C(NC(=O)c3ccccc3)C(=O)c3ccccc3C2=O)cc1Cl,,inactive: -24.4%
CC(=O)c1cccc2c(O)c(C3=Nc4ccccc4C3=O)[nH]c12,"inconclusive: 28.2 µM [inhibitor, partial curve]",
COc1ccc(Oc2ccc(S(=O)(=O)N3CCCCC3)cc2S(=O)(=O)N2CCCCC2)cc1,"inconclusive: 39.8 µM [inhibitor, single point]",
CN1C(=O)/C(=C/c2ccccc2OCc2cccc(F)c2)NC1=S,,inactive: 1.35%
Cc1ccc(C(=O)CSc2ccccn2)cc1,"inconclusive: 39.8 µM [inhibitor, single point]",
Cc1ccc(OCC(O)CNS(=O)(=O)c2ccccc2C(=O)O)cc1 (centres undefined),,inactive: 8.47%
CCOc1ccc(NS(=O)(=O)c2ccc3[nH]cc(C(=O)NCCOC)c(=O)c3c2)cc1,,inactive: -7.68%
CCOC(=O)C1CCN(C(=O)CCc2c(C)nc3cc(-c4ccccc4)nn3c2C)CC1,"inconclusive: 25.1 µM [inhibitor, single point]",
Cc1ccc(/C=N/Nc2nc(C(C)(C)C)cs2)o1,,inactive: -29%
CN(C)c1ccc(N/C=C/C(=O)c2ccco2)cc1,,inactive: 6.34%
